Results from paper PMC10526654.
Results are given in words; binding and its absence hold for the method and conditions named. In cells and extracts the contact can be indirect. Some entries that bind do so weakly or less than the wild type.

Chains of the proteins cited; added tags and fusions are not shown. Lines headed by an entry give the natural chain unless they say otherwise; changes in a name come on top.
UniProt P19474: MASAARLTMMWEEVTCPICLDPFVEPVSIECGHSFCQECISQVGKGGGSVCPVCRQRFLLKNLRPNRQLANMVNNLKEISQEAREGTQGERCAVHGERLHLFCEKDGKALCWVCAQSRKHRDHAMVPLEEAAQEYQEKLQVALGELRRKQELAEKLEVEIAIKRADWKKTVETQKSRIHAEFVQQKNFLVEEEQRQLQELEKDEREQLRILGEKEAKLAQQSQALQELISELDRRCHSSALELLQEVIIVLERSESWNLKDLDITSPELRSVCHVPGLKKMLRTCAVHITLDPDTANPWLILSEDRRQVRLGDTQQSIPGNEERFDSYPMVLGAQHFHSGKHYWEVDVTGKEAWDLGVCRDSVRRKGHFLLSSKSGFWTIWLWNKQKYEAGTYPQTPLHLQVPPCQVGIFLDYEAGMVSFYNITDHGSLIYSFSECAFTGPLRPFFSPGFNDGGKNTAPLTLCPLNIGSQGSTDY

What was measured:
[1] = target: HA-TRIM21^R443W (UniProt P19474); experiment: co-IP; U87-MG cells transfected with HA-TRIM21 or HA-TRIM21^R443W; lysates immunoprecipitated with anti-HA antibodies
[2] = target: HA-TRIM21 (in GBM cells) (UniProt P19474); experiment: as above
[3] = target: HA-TRIM21 (in GBM cells) (UniProt P19474); experiment: co-IP; U87 and U251 cells; ectopic TRIM21 with TIF1γ (Figure 4C); Flag-TIF1γ precipitated with anti-flag (Figure 4D); wash 50 mM Tris HCl, 150 mM NaCl, pH 7.4

binding [1]: no binding | binding [2]: binds | binding [3]: binds
B1: TIF1γ (endogenous in GBM cells) (protein, UniProt Q9UPN9 1-1127)
chain: MAENKGGGEAESGGGGSGSAPVTAGAAGPAAQEAEPPLTAVLVEEEEEEGGRAGAEGGAAGPDDGGVAAASSGSAQAASSPAASVGTGVAGGAVSTPAPAPASAPAPGPSAGPPPGPPASLLDTCAVCQQSLQSRREAEPKLLPCLHSFCLRCLPEPERQLSVPIPGGSNGDIQQVGVIRCPVCRQECRQIDLVDNYFVKDTSEAPSSSDEKSEQVCTSCEDNASAVGFCVECGEWLCKTCIEAHQRVKFTKDHLIRKKEDVSESVGASGQRPVFCPVHKQEQLKLFCETCDRLTCRDCQLLEHKEHRYQFLEEAFQNQKGAIENLLAKLLEKKNYVHFAATQVQNRIKEVNETNKRVEQEIKVAIFTLINEINKKGKSLLQQLENVTKERQMKLLQQQNDITGLSRQVKHVMNFTNWAIASGSSTALLYSKRLITFQLRHILKARCDPVPAANGAIRFHCDPTFWAKNVVNLGNLVIESKPAPGYTPNVVVGQVPPGTNHISKTPGQINLAQLRLQHMQQQVYAQKHQQLQQMRMQQPPAPVPTTTTTTQQHPRQAAPQMLQQQPPRLISVQTMQRGNMNCGAFQAHQMRLAQNAARIPGIPRHSGPQYSMMQPHLQRQHSNPGHAGPFPVVSVHNTTINPTSPTTATMANANRGPTSPSVTAIELIPSVTNPENLPSLPDIPPIQLEDAGSSSLDNLLSRYISGSHLPPQPTSTMNPSPGPSALSPGSSGLSNSHTPVRPPSTSSTGSRGSCGSSGRTAEKTSLSFKSDQVKVKQEPGTEDEICSFSGGVKQEKTEDGRRSACMLSSPESSLTPPLSTNLHLESELDALASLENHVKIEPADMNESCKQSGLSSLVNGKSPIRSLMHRSARIGGDGNNKDDDPNEDWCAVCQNGGDLLCCEKCPKVFHLTCHVPTLLSFPSGDWICTFCRDIGKPEVEYDCDNLQHSKKGKTAQGLSPVDQRKCERLLLYLYCHELSIEFQEPVPASIPNYYKIIKKPMDLSTVKKKLQKKHSQHYQIPDDFVADVRLIFKNCERFNEMMKVVQVYADTQEINLKADSEVAQAGKAVALYFEDKLTEIYSDRTFAPLPEFEQEEDDGEVTEDSDEDFIQPRRKRLKSDERPVHIK
